# Test results reported in PubChem BioAssay AID1671194 (National Center for Advancing Translational Sciences (NCATS), 2021).
# The campaign covered roughly 140,000 compounds. About 240 (0.17%) were called active. The shares of active, inactive and inconclusive entries below differ from those in the screen. Calls follow the shape of the dose curve; as a rule, active = well fitted inhibition curve with a large enough effect; inconclusive = small, poorly fitted or top-dose-only effect; inactive = no such curve, though single readings can be large or run the other way. Potencies of inconclusive entries are doubtful fits and often do not repeat.
# Experiment: Primary qHTS assay for inhibitors of alpha-synuclein gene (SNCA) expression; also: nearly all actives have a fitted effect of over 45% in size;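 as to activity change, negative = inhibition: plate controls were DMSO cells for no effect and cell-free wells for full effect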
# Conditions: HEK-293 SNCA-luciferase knock-in, luminescence, 24 h; activity change, negative = inhibition: at 57.2 µM (top of the series) unless noted
# Potency is read from the fitted curve at half-maximal effect; tags tell the direction and shape of the fitted curve.
SMILES,Potency,"activity change, negative = inhibition"
COc1ccc(-c2nnc([C@H]3CCN(CC4CCCCC4)C3)o2)cc1,"inconclusive: 6.31 µM [inhibitor, single point]",
CN(CC1(C)CCOCC1)C(=O)c1ccccc1Cl,"inconclusive: 12.6 µM [inhibitor, partial curve, poor fit]",
O=C(NCc1ccccc1)c1ccc2nnc(-c3ccc(F)cc3)n2c1,,inactive: 13.6%
Cc1ccc(Nc2c(C(C)C)c(C)c(C#N)c3nc4ccccc4n23)cc1,"inconclusive: 17.8 µM [inhibitor, single point]",
COc1cccc(NC(=O)C(Cc2ccccc2)NS(=O)(=O)c2ccc3c(c2)c(=O)n(C)c(=O)n3C)c1 (stereo not drawn),"inconclusive: 39.8 µM [inhibitor, single point]",
Cn1nc(C(=O)N2CCc3nc4cc[nH]n4c(=O)c3C2)c2ccccc21,,inactive: 47.7%
CC1(C)CNC(=O)c2nc(-c3ccccc3-n3cncn3)[nH]c2C1,,inactive: 17.3%
O=C1NCc2ccccc2CC12CCCN2Cc1ccc(Cl)s1 (stereo not drawn),,inactive: -42.9%
O=C1c2c(nc(COc3ccc(F)cc3)n2Cc2ccccc2)NCCN1Cc1ccccc1,"inconclusive: 22.4 µM [inhibitor, partial curve, poor fit]",
CCCCCCN(CCC(=O)NCCc1ccccc1)C(=O)c1cc(C)oc1C,,inactive: 51%
CC1CCCCN1CCCNC(=O)CN1C(=O)c2cccnc2Oc2ccccc21 (stereo not drawn),"inconclusive: 31.6 µM [inhibitor, partial curve, poor fit]",
COc1ccc(Cl)cc1NC(=O)c1c(NCc2cccnc2)sc2c1CCC(C)C2 (stereo not drawn),"inconclusive: 15.8 µM [inhibitor, partial curve, poor fit]",
COc1ccc(CNC(=O)c2nc3nc(-c4ccccc4)c(Cl)cc3n2C)cc1OC,"inconclusive: 28.2 µM [inhibitor, partial curve, poor fit]",
CC1=C[C@@H](CN2CCN(C)CC2)[C@H](C(C)C)C[C@H]1Cc1nnc(-c2ccc(C)cc2)o1,,inactive: -18.2% [at 87.6 µM]
O=C(O)C[C@@H]1CCN(C(=O)c2ccc(C(F)(F)F)cc2)C[C@@H]1CCN1CCN(c2ccc(F)cc2)CC1,"inconclusive: 10 µM [inhibitor, partial curve, poor fit]",
Cc1ccc(NC(=O)Cn2nc(Cc3ccncc3)c3ccccc3c2=O)c(Cl)c1,"inconclusive: 25.1 µM [inhibitor, single point]",
CNC(=O)c1cc(-c2cnn(C)c2)cc2c1OCCN2Cc1cccnc1,,inactive: 33.1% [at 87.6 µM]
CCOC(=O)C1(Cc2cccc(OC)c2)CCCN(Cc2cccc(C)n2)C1 (stereo not drawn),,inactive: -27.3%
COc1cccc(NC(=O)NC[C@@H]2C=C(C)[C@H](CC(=O)N3CCN(c4ccccn4)CC3)C[C@H]2C(C)C)c1,"inconclusive: 39.8 µM [inhibitor, single point]",
O=C(c1ccc(Cl)cc1)N1CCn2c(nn(-c3ccc(Cl)cc3)c2=O)C1,"inconclusive: 2.51 µM [inhibitor, partial curve, poor fit]",
O=C(NCc1ccc(N2CCOCC2)cc1)c1cccnc1N1CC2CC(C1)[C@H]1CCCC(=O)N1C2 (stereo partly drawn),"inconclusive: 2 µM [inhibitor, partial curve, poor fit]",

SMILES,Potency,"activity change, negative = inhibition"
COc1ccc(NC(=O)C2CN(C3CCCCC3)C(=O)N2)cc1OC (stereo not drawn),,inactive: 1.9%
CCOC(=O)c1ccccc1NC(=O)CN1C(=O)NC(c2ccc(Cl)cc2)C2=C1COC2=O (stereo not drawn),,inactive: 0.0333%
CCN(CC)c1cc(CCC(=O)N2CCN(c3cccc(OC)c3)CC2)ccn1,"inconclusive: 39.8 µM [inhibitor, single point]",
O=C(NCC1CC1)c1coc(COc2ccc3c(c2)C(c2cccc(F)c2)N(C(=O)C2CC2)CC3)n1 (stereo not drawn),"inconclusive: 10 µM [inhibitor, partial curve, poor fit]",
COc1cccc(C(=O)N2CCN(c3cc(C(F)(F)F)nc(C)n3)CC2)c1OC,,inactive: -22.2%
CCCn1cc(-c2ccnc(NC3CCN(Cc4cccnc4)CC3)n2)c(C)n1,"inconclusive: 31.6 µM [inhibitor, single point]",
CCOC(=O)Cc1ccc(NC(=O)N(Cc2ccc(CC)cc2)Cc2cn[nH]c2-c2ccc(OC)cc2)cc1,"inconclusive: 39.8 µM [inhibitor, single point]",
CCc1ccccc1-n1nnc(-c2nsc(NC(=O)c3ccc(C)c(C)c3)n2)c1C,"inconclusive: 39.8 µM [inhibitor, single point]",
CCc1ccc(C2=CC(c3c(F)cccc3Cl)n3c(nc4ccccc43)N2)cc1 (stereo not drawn),"inconclusive: 25.1 µM [inhibitor, single point]",
CCc1ccc(C(=O)N2CCN(c3cc(-c4ccc(F)cc4)[nH]n3)CC2)cc1,"inconclusive: 11.2 µM [inhibitor, partial curve, poor fit]",
CCc1ccc(OCCn2c(C3CC(=O)N(Cc4ccc(F)cc4)C3)nc3ccccc32)cc1 (stereo not drawn),"inconclusive: 39.8 µM [inhibitor, single point]",
CNC(=O)N1CCC(C2CCN(C(=O)Cc3ccc(OC)c(Cl)c3)C2)CC1 (stereo not drawn),"inconclusive: 28.2 µM [inhibitor, partial curve, poor fit]",
CN(C)CCNC(=O)Cc1c[nH]c2ncc(-c3ccccc3)cc12,,inactive: 4.81% [at 87.6 µM]
COCCn1c(=O)n([C@H]2CCCN(S(=O)(=O)c3cccc(OC)c3)C2)c2ncccc21,"inconclusive: 39.8 µM [inhibitor, single point]",
O=C(c1ccc2c(c1)N(Cc1ccccc1)C(=O)c1ccccc1S2(=O)=O)N1CCN(Cc2ccccc2)CC1,"inconclusive: 25.1 µM [inhibitor, single point]",
COc1cccc(-c2cc3c(=O)n(CCNC(=O)C4CCN(C(C)=O)CC4)ccn3n2)c1,,inactive: 22.3%
c1cncc(-c2ccnc3nc(C4CCC4)nn23)c1,"inconclusive: 39.8 µM [inhibitor, single point]",
O=S(=O)(Cc1ccccc1)N[C@H]1CO[C@H]2[C@@H]1OC[C@@H]2Nc1nccc(-c2cccc(F)c2)n1,"inconclusive: 39.8 µM [inhibitor, single point]",
Cc1cccc(NC(=O)Cn2c(C)cc3nc4n(c(=O)c32)CCCCC4)c1C,,inactive: -6.47%
O=C(C1CCN(S(=O)(=O)c2ccc(Br)s2)CC1)N1CCN(c2cccc(C(F)(F)F)c2)CC1,"inconclusive: 39.8 µM [inhibitor, single point]",
COc1cccc(OCC(=O)c2ccc3c(c2)N(CCCC(=O)NCc2ccccc2)C(=O)CO3)c1,,inactive: -21.4%

SMILES,Potency,"activity change, negative = inhibition"
Fc1ccc(-c2noc([C@@H]3Cc4nc[nH]c4CN3CCCc3ccccc3)n2)cc1Cl,,inactive: 59.5%
O=C(CSCc1cnn(-c2ccccc2)c1-n1cccc1)NCc1cccc(Cl)c1,"inconclusive: 15.8 µM [inhibitor, partial curve, poor fit]",
Cn1nccc1CN1CCC2(C1)C(=O)N(CCc1ccccc1)c1ccccc12 (stereo not drawn),"inconclusive: 39.8 µM [inhibitor, single point]",
Cc1cc(C)c2c(CC(=O)N(Cc3ccc(Cl)cc3)Cc3ccco3)coc2c1,"inconclusive: 31.6 µM [inhibitor, single point]",
O=C(Nc1ccccc1)c1nc[nH]c1C(=O)O,"inconclusive: 39.8 µM [inhibitor, single point]",
COCCNC(=O)C1COC2(CCC(C)CC2)N1C(=O)c1cccc([N+](=O)[O-])c1 (stereo not drawn),"inconclusive: 31.6 µM [inhibitor, partial curve, poor fit]",
Cc1ccc(NC(=O)Cn2cc(S(=O)(=O)Cc3ccc(F)cc3)c3ccccc32)cc1Cl,"inconclusive: 31.6 µM [inhibitor, single point]",
COc1cc(NC(=O)Cn2c(=O)ccc3cc(S(=O)(=O)N4CCCC4)ccc32)cc(OC)c1,"inconclusive: 10 µM [inhibitor, partial curve, poor fit]",
COc1ccc(-c2cn3cc(C(=O)N4CCN(C)CC4)nc3s2)cc1,,inactive: 153%
Cc1ccc(S(=O)(=O)Nc2ccc3nc(-c4ccc(F)cc4)oc3c2)cc1,"inconclusive: 39.8 µM [inhibitor, single point]",
Cc1nn(-c2ccccc2)c(C)c1[C@@H]1C=C[C@@H](NC(=O)c2ccco2)C1,,inactive: 6.59% [at 87.6 µM]
Cc1noc(-c2cn(C3CCN(C(=O)c4cc(Cl)ccc4F)C3)nn2)n1 (stereo not drawn),"inconclusive: 20 µM [inhibitor, partial curve, poor fit]",
COc1ccccc1-c1cc(C(=O)NCc2cccc(C(F)(F)F)c2)nn2cnnc12,"inconclusive: 10 µM [inhibitor, partial curve, poor fit]",
Cc1cccc(N2CCN(C(=O)C3CCN(c4ncnc5c4nc4n5CCCCC4)CC3)CC2C)c1 (stereo not drawn),"inconclusive: 39.8 µM [inhibitor, single point]",
COc1cccc(-c2ccnc(-c3nnc(C)n3Cc3ccccc3)c2)c1,,inactive: 32.6% [at 87.6 µM]
CCNC(=O)N1CC(C(=O)NCc2cccc(F)c2)CC(c2ccc(F)c(C)c2)C1 (stereo not drawn),,inactive: 10.2%
CCS(=O)(=O)c1ncc(Cl)c(C(=O)NCc2ccc(OC)cc2)n1,active: 22.4 µM,
COCCN1CCC(N2CCN(S(=O)(=O)Cc3ccccc3)CC2)C1=O (stereo not drawn),"inconclusive: 2 µM [inhibitor, full curve, poor fit]",
COCC1CN(C(C)=O)CC12CCN(C(=O)c1ccc(C)c(F)c1)CC2 (stereo not drawn),"inconclusive: 20 µM [inhibitor, single point]",
C=Cc1ccc(Cn2c(C(=O)O)c(CNC3CCCCC3)c3ccc(OC)cc32)cc1,"inconclusive: 39.8 µM [inhibitor, single point]",
CN(C)CC(=O)N1CCC2(C1)CN(C)c1ccc(C(=O)NCc3ccccc3)cc12 (stereo not drawn),,inactive: -1.57% [at 87.6 µM]
